This is an account of results in the supplement of paper PMC3334620.

Whole data set: some 33,000 sequences, median “E-score (-0.5 to 0.5)” near -0.053, cut for the highest 2% near 0.37. This is one part of the list.

The target of the test is Hap1 (UniProt P0CE41). The test is described as follows: PBM E-score (8-mer binding enrichment) (E-score (-0.5 to 0.5)); higher = stronger / more preferred TF binding; most listed sequences are background and not binding sites. As to conditions: protein concentration: 200 nM; construct: GST-DNA-binding domain. As to the method: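 Universal 'all 10-mer' protein binding microarrays (Agilent AMADID 015681) probed with GST-tagged S. cerevisiae TFs (full-length or DBD) made by in vitro transcription/translation (PURExpress), about 100-200 nM. Bound TF was detected with fluorescent anti-GST. Each ungapped 8-mer (which stands for itself and its reverse complement) is scored by the PBM enrichment score (E-score), a modified Wilcoxon-Mann-Whitney statistic from -0.5 to +0.5, computed with the Universal PBM Analysis Suite. Scale: above 0.35 generally sequence-specific binding.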
UniProt P0CE41, sequence (P0CE41 whole entry, the tested form may be a part): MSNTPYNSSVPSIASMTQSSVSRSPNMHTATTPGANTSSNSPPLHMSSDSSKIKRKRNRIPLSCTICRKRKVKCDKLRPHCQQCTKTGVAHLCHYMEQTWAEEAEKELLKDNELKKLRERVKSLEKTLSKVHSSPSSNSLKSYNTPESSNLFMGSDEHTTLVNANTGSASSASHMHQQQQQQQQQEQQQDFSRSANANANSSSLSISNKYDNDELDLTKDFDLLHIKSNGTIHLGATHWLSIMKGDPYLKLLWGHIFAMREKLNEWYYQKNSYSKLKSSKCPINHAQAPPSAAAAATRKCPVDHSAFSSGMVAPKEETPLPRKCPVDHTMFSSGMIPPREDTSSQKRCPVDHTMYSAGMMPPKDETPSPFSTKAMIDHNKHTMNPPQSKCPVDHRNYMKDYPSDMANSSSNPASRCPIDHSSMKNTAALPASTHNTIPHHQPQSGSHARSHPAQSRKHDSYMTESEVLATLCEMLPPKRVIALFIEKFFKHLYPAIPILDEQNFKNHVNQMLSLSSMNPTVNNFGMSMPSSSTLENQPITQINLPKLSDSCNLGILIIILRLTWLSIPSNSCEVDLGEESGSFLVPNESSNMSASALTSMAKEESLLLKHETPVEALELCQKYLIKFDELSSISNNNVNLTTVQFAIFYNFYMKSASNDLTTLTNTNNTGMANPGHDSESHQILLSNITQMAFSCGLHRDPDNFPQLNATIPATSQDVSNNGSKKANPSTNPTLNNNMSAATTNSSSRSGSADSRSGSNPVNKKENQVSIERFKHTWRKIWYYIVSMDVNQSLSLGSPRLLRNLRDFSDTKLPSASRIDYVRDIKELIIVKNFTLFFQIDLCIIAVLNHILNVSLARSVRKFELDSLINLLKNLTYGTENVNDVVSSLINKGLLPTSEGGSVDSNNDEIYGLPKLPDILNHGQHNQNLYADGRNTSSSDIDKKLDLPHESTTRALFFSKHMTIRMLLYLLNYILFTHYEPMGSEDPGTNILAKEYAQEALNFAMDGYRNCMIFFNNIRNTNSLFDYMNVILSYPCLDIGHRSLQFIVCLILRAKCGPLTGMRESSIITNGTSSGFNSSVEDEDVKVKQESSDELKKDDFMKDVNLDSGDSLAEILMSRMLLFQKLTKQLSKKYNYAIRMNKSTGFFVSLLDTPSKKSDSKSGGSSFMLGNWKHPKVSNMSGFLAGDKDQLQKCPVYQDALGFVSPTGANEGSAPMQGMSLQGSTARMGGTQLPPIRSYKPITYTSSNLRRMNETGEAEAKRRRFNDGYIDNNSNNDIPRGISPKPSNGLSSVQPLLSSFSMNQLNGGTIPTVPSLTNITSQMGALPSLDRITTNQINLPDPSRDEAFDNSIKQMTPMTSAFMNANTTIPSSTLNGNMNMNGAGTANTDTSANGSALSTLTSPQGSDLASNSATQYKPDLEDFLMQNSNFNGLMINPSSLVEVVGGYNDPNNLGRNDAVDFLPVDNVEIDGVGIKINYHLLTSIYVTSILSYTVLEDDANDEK
For AAAAACAA, the “PBM E-score” value was 0.0441. Consider CGTCCTCA, for which the “PBM E-score” value was -0.196. Take GACAACTC: the “PBM E-score” value stood at 0.169.

As to ACCCCCTC, the “PBM E-score” value was -0.138.

Consider CCATGGTC, for which the “PBM E-score” value was -0.239. As to ATGCAGAG, the “PBM E-score” value is -0.179. Take ATGGCGAA: the “PBM E-score” value came to 0.115. Next, CAGGTGGC: -0.151. Turning to ATAGTTGC, the “PBM E-score” value is 0.00283. ACTTGAAT: the “PBM E-score” value was -0.116. As for ACCAGCCG, the “PBM E-score” value is 0.147. As to CGTAGTCA, the “PBM E-score” value was -0.182. With TACAGAAA, the “PBM E-score” value is -0.0305. Regarding CGACCTCC, the “PBM E-score” value is 0.143. For CCAGTTCA, the “PBM E-score” value came to 0.0993. For GAGGATAC, the “PBM E-score” value was -0.193. The same measure for CCTCAGTA: -0.18; for AATCATTA: -0.221; for CAAGACTC: -0.145. As for CCGGTCAA, the “PBM E-score” value came out at 0.323. The same measure for CGGCACCC: 0.051; for CATCGCGA: 0.0702. With GGAGGAAC, the “PBM E-score” value was found to be 0.107. As for CGGTCAAA, the “PBM E-score” value was found to be 0.269. Consider ATAAGGCG, for which the “PBM E-score” value was -0.185. For AGCTCAAA, the “PBM E-score” value is 0.0384. As for CGACGTGA, the “PBM E-score” value was -0.119. Consider ATCTCAAG, for which the “PBM E-score” value was -0.179. AGGCTTGA: the “PBM E-score” value is -0.199.

Turning to CCGCTCAA, the “PBM E-score” value turned out to be 0.0207. The same measure for GCCTCCGA: 0.123. In the case of ATCAGCGC, the “PBM E-score” value amounted to 0.0985. For the sequence AGACACTG, the “PBM E-score” value was -0.266. With CTGCATCA, the “PBM E-score” value was -0.337.

For AAAGGGGT, the “PBM E-score” value was -0.326. As to CCTACTTC, the “PBM E-score” value was -0.139. The same measure for ATATACAC: -0.027; for AACAACGG: 0.214; for GATCGGGA: 0.136. Next, CTAAATAG: -0.263; AGTCAATG: -0.261. With AGGGGAAG, the “PBM E-score” value is -0.261. For the sequence CCTGTGTC, the “PBM E-score” value was -0.15. In the case of CGTAGTAC, the “PBM E-score” value was -0.00176. Next, ATCTGACA: -0.316; AGCTCTCG: 0.111. Regarding CCATGTAG, the “PBM E-score” value is -0.0462. With AATGCCCT, the “PBM E-score” value is -0.166. Consider AAGAAAGA, for which the “PBM E-score” value was -0.104. As for CTAGAAAC, the “PBM E-score” value was -0.298.

Turning to GGTGCCGA, the “PBM E-score” value came to 0.243. The same measure for TGATCGCA: -0.105. For ACGGTCGG, the “PBM E-score” value is 0.225. As for AGATGAGG, the “PBM E-score” value is -0.145.

As to AGGAGTGC, the “PBM E-score” value was -0.0701. As to GAAACCTC, the “PBM E-score” value was -0.00121. Next, CAGGTAAC: -0.108; CGTATCTA: -0.0509.

With ACAGAAAC, the “PBM E-score” value is -0.164. For CCCTCAAC, the “PBM E-score” value was -0.0645. The same measure for CGATATCG: 0.388; for AAGCCATT: -0.153; for AACTATTG: -0.166. As for TTACGAAA, the “PBM E-score” value was -0.0562. On to AGTAACCC, for which the “PBM E-score” value is -0.0672. The same measure for CCCAAAGC: -0.136; for CCTCTCCG: 0.106.

On to AGTGACAA, for which the “PBM E-score” value is -0.26. Turning to AGTAGGCA, the “PBM E-score” value was -0.0521.

Consider ACGACTCG, for which the “PBM E-score” value is -0.0604. As for TCACGACA, the “PBM E-score” value is -0.24. As for AGGAGGCC, the “PBM E-score” value was -0.254. As for CTCGGGTC, the “PBM E-score” value is 0.286. As to GAATATAA, the “PBM E-score” value was -0.00181. Turning to CGGTAATA, the “PBM E-score” value was 0.408. As for ATAGCTTC, the “PBM E-score” value is -0.0479. GATACTAC: the “PBM E-score” value was 0.205. As for ATTCCAAC, the “PBM E-score” value is -0.0865.

GCCCGGCC: the “PBM E-score” value was determined as 0.329. Take AAACATTC: the “PBM E-score” value is -0.152. For GGCGGATA, the “PBM E-score” value stood at 0.284. For AGATTAGG, the “PBM E-score” value amounted to 0.0128. On to GCCAACCA, for which the “PBM E-score” value came out at 0.00652.

With CGTGCGTA, the “PBM E-score” value worked out at 0.0451. The same measure for AGCCGGAA: 0.371; for ACGTAGCA: -0.22; for AAGGTTAA: -0.0858. The same measure for CGACGACC: 0.251; for CGCCTTCC: 0.0965; for AGCCTTTG: -0.236. On to ACAGCCGA, for which the “PBM E-score” value is 0.282. For AACGGAAT, the “PBM E-score” value came to 0.306. Regarding CGAGCACA, the “PBM E-score” value came out at 0.156. Regarding CGCGCTAA, the “PBM E-score” value worked out at 0.165.

For GAATGTAA, the “PBM E-score” value worked out at 0.131.

As for ATCCTGTG, the “PBM E-score” value is -0.205. Next, GATAGACA: -0.229; CCAGTCGG: 0.214; ATGGGCGG: 0.0669. On to AATAATTA, for which the “PBM E-score” value was found to be 0.0105.

For AAGTATGG, the “PBM E-score” value was -0.104. Next, ATTAGTAC: 0.0729. Consider CTAAGATC, for which the “PBM E-score” value came to 0.0174.

As to AGCGTTTC, the “PBM E-score” value is -0.208. As for CCCAATAG, the “PBM E-score” value was -0.334.

As to GCGTCCGA, the “PBM E-score” value came out at 0.305.

As for GGTAGGTA, the “PBM E-score” value was -0.0912. Next, GCAGATCC: 0.0294. Regarding CCACATTC, the “PBM E-score” value was -0.0225.
